Results from PubChem BioAssay AID1345083 (National Center for Advancing Translational Sciences (NCATS), 2018).
Values joined by “and” are separate entries in the source; they are usually repeats but may differ in a detail not shown here. Equal values may be shown once. Out of some 94,000 compounds screened, about 6,200 (6.6%) were called active. Inconclusive results, whose numbers are uncertain, are shown with a selection of clear calls. Calls come from the whole dose curve; as a rule, active = well fitted inhibition curve with a large enough effect; inconclusive = small, poorly fitted or top-dose-only effect; inactive = flat fitted curve, though single readings scatter. A potency beside an inconclusive call is a rough fit, not a confirmed value.

assay: Cytotoxic Profiling in HEK 293 Cell Line of Diverse Libraries Using Quantitative High-Throughput Screening; settings: HEK 293 viability, ATP luminescence (CellTiter-Glo), 48-72 h; series mostly up to 115 µM; note: nearly all actives have a fitted effect of over 60% in size
Method in brief: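 qHTS cytotoxicity; HEK 293, 250 cells/well; compound pinned; 48 or 72 hr, 37 degree Celsius, 5% CO2, 95% humidity; CellTiter-Glo, 10 min RT; luminescence (ATP).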
Potency is the fitted concentration of half-maximal effect; tags give direction and shape of the fitted curve.

Structure (SMILES) | Potency
CCc1ccc(C(=O)N2CCC(Cc3nc(C(C)C)no3)CC2)cc1 | inconclusive: 28.2 µM [inhibitor, full curve]
Cc1noc(C)c1-c1cc2cc(CN(C)C)oc2c(Nc2cccc([S+](C)(=O)[O-])c2)n1 | active: 50.1 µM
CNC(=O)[C@@H]1[C@H]2CN(Cc3ccccn3)CCN2C[C@H]1c1ccccc1 | inconclusive: 25.1 µM [inhibitor, partial curve, poor fit]
Cc1ccc(C2Cn3nnc(C(=O)NCc4ccc(F)cc4Cl)c3CO2)cc1 (stereo not given) | inconclusive: 50.1 µM [inhibitor, partial curve, poor fit]
O=C(c1ccoc1)N1CCN(c2cc(-c3cccs3)[nH]n2)CC1 | inactive
c1ccc(-c2nc3c(c(N4CCNCC4)n2)CCC3)cc1 | inconclusive: 44.7 µM [inhibitor, partial curve, poor fit]
FC(F)(F)c1ccc2nc([C@H]3CCN(Cc4ccc(Cl)cc4)C3)[nH]c2c1 | active: 22.4 µM
CN(C)C[C@@H]1CN(Cc2ccccn2)C[C@H]1NS(=O)(=O)c1cccc(C#N)c1 | inactive
CN(C)CCN(C)C(=O)c1ccc2c(c1)NC(C)(COc1ccccc1)CO2 (stereo not given) | inconclusive: 100 µM [inhibitor, partial curve, poor fit]
Cc1ccccc1-n1nc(C)c(CCC(=O)NCC2CC2)c1Oc1cccc(F)c1 | inconclusive: 89.1 µM [inhibitor, single point]
Cn1cc(C(=O)NCC2CN([S+](=O)([O-])c3ccccc3Cl)CC23CN(c2ccccc2)C3)cn1 (stereo not given) | inconclusive: 56.2 µM [inhibitor, partial curve, poor fit]
COCCNC(=O)N1CCN(Cc2ccco2)CC(C(=O)O)C1 (stereo not given) | inactive
O=C(NCc1ccncc1)c1nc2c(o1)CCN(Cc1ccccc1)CC2 | inconclusive: 89.1 µM [inhibitor, partial curve]
CCOc1ccc(NC(=O)N2CCc3cc(OC)c(OC)cc3C2CNC(=O)c2ccco2)cc1 (stereo not given) | inconclusive: 44.7 µM [inhibitor, partial curve, poor fit]
O=C1CC(c2ccccc2)N(CC2CCCCC2)CCCCCCN1 (stereo not given) | inactive
CN(C(=O)Cn1ccn2nc(-c3ccc(F)cc3)c(CO)c2c1=O)c1ccccc1 | inconclusive: 89.1 µM [inhibitor, single point]
Cc1nn2c(c1-c1ccccc1Oc1ccccc1)N(Cc1cccc(C(=O)O)c1)CCC2 | inconclusive: 56.2 µM [inhibitor, partial curve, poor fit]
Cc1ccc(C(=O)N2CCC(C(=O)N3CCC(c4nc5ccncc5[nH]4)CC3)CC2)cc1 | inactive
Cc1cccc2[nH]c(CN(C)C(=O)c3ccc(CCC(C)(C)O)cc3)nc12 | inconclusive: 79.4 µM [inhibitor, partial curve, poor fit]
Fc1ccc(CCC2CCCN(C3CCN(Cc4cccnc4)CC3)C2)cc1 (stereo not given) | inconclusive: 50.1 µM [inhibitor, partial curve, poor fit]

Structure (SMILES) | Potency
COc1ccccc1CNC(=O)c1c(OCC2CC2)cc(=O)n2c1CCCCC2 | inconclusive: 89.1 µM [inhibitor, single point]
O=C1CC2CCCC(C1)N2C(=O)c1cccc(Cl)c1 | inconclusive: 35.5 µM [inhibitor, single point]
N#Cc1cccc(C(=O)Nc2ccc3c(N4CCOCC4)ncnc3c2)c1 | inconclusive: 35.5 µM [inhibitor, partial curve, poor fit]
O=C(NCCc1ccccc1)C1CCCN(c2ccnc3ccnn23)C1 (stereo not given) | inconclusive: 112 µM [inhibitor, partial curve, poor fit]
COC[C@H]1NC(=O)CC[C@H]1C(=O)NCc1ccccc1OC | inconclusive: 79.4 µM [inhibitor, partial curve]
Cc1noc(C)c1S(=O)(=O)N1CCC(Oc2ccc(-c3noc(C(C)C)n3)cc2)C1 (stereo not given) | active: 20 µM
C=CCn1cc2c3c(cccc31)[C@H](CC(C)C)N[C@H](C(=O)NCc1ccccc1OC)C2 | active: 39.8 µM
Cn1ccc2c(C(=O)NCc3cccnc3)nc(-c3ccc(F)cc3)cc21 | active: 100 µM
CC(=O)N1CCC(c2nnc3n2C(C(=O)NCc2ccccc2F)CC3)CC1 (stereo not given) | inactive
Cc1noc(C)c1[S+](=O)([O-])NC1CCN(Cc2cccc(-c3cccs3)c2)CC1 | inconclusive: 44.7 µM [inhibitor, partial curve, poor fit] and active: 22.4 µM
O=C(Nc1ccc(Cl)cc1)N1CCC2(C1)C(=O)N(CCc1ccccc1)c1ccccc12 (stereo not given) | active: 31.6 µM and inconclusive: 50.1 µM [inhibitor, partial curve, poor fit]
Cn1nccc1C(O)c1cc2n(n1)CCN(Cc1nc(C3CC3)no1)C2 (stereo not given) | inactive
CC(C)c1noc(-c2cn(C3CCCN(C(=O)c4ccc(Cl)cc4)C3)nn2)n1 (stereo not given) | inconclusive: 44.7 µM [inhibitor, partial curve, poor fit]
COCC(=O)NC[C@@H]1C=C(C)[C@H](CC(=O)N(C)Cc2ccccc2)C[C@H]1C(C)C | inconclusive: 112 µM [inhibitor, partial curve, poor fit]
COCCOC1CCN(C(=O)c2cccc(OC)c2)CC1 | inactive
CCN(CCNC(=O)c1cc2c(s1)CN(C1CC1)C2)c1cccc(C)c1 | inconclusive: 56.2 µM [inhibitor, partial curve, poor fit]
COc1ccc(-c2cn3c(n2)CO[C@@H](CNC2CCCC2)C3)cc1 | inactive
Cc1ccccc1C(=O)N1CCC(C(=O)N2CCC(N3Cc4cccn4C3=O)CC2)CC1 | inconclusive: 89.1 µM [inhibitor, single point]
CC1=C[C@@H](CNC(=O)c2cccc(F)c2)[C@H](C(C)C)C[C@H]1CC(=O)NCc1cccnc1 | inconclusive: 79.4 µM [inhibitor, partial curve]
CC(C)C(=O)Nc1ccc(C2(C(=O)N3CCN(c4ccccc4)CC3)CCCCC2)cc1 | inconclusive: 31.6 µM [inhibitor, partial curve, poor fit]
